In the supplement of paper PMC11417369:
± gives the standard deviation of the averaged measurements. Some of the results follow.

What follows are sequences tested on PfAP2-I AP2 domain 3 (GST-tagged) (assay: gcPBM binding intensity (ln(normalized median fluorescence intensity)); higher = stronger DNA binding).
Method in brief: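 The highest Masliner-normalised natural-log median intensity across replicate spots of either probe orientation is reported as binding intensity. GST-tagged P. falciparum DNA-binding domains expressed in E. coli were applied for 1 h to an Agilent 4 × 180k array of primer-extended double-stranded 36-bp intergenic genomic probes plus negative controls, and bound protein was detected with Alexa488 anti-GST antibody and scanned at 488 nm.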

Sequence	gcPBM binding intensity (ln)
TATATATATATTTAGTGTACTTAAAAAAAATAATAA [XGTACX_site5454]	8.9 ± 0.18
TATTTTTTTTTCCATTGTACATTTTTGATATTTTTC [XGTACX_site744]	7.89 ± 0.57
ATAATAATAAAATATATATACAAAGGTGAAATTATA [TGCATGCA_negctrl_site197]	7.96 ± 0.58
CTTTGTAGTATATTAACACACAACTGTTTATAATAT [CACACA_site6038]	7.77 ± 0.54
TTCTTTAAAAAATTCGATAAAAAAAAAAAAAGAAAA [CACACA_negctrl_site242]	7.57 ± 0.35
TATATACTCATGCGCACACACAAGTGGGAAATTTGG [CACACA_site5056]	8.35 ± 0.6
GGAAAGACAGTTCACAGTACCCAGGAAATCTACGGA [XGTACX_site1996]	7.58 ± 0.69
ATATATTATAGGTACACACACATATAAGGGATTATA [CACACA_site6154]	7.99 ± 0.38
ATATACATATATATTGCATGCAGAGAGTATTTATAA [TGCATGCA_site646]	8.14 ± 0.49
ATATATATATATATTGTGCACAAAAAAAAATAAGCA	11.2 ± 0.15
CGTTCATATTATTATAGTACATATTATTATAGTTTT [XGTACX_site1550]	7.69 ± 0.42
TTTTTTTTTTTATTTGCATGCGGTGTTCATAATATT [TGCATGCA_site199]	8.18 ± 0.95
TATTTGTAAATTATTTGGGTGTGTAGGGGATATTCT [XGTACX_negctrl_site204]	8.28 ± 0.86
TTGGTGGATAAATTTACACACAATAACTTTCGTTCA [CACACA_site6358]	8.43 ± 0.12
AGAAGAAAAGTAAAAAGTACATTATTCATGGCCTAT [XGTACX_site5601]	7.46 ± 0.7
ATATAAGAAATAAAGAAAAATGTGTTTTTTTTTTTT [XGTACX_negctrl_site396]	7.5 ± 0.59
TTTTTCCTAACATATTATATACTTGAATATTTATTA [CACACA_negctrl_site156]	7.67 ± 0.56
AAACAAATATTTATCACAATGTCATTTTGTTAACAT [GTGCAC_negctrl_site171]	7.62 ± 0.68
AGAGCTGTTTTTTATGCATGTAGTTTAGAAAATACA [TGCATGCA_site257]	7.67 ± 0.61
TTTATCTTATTTTTATGTACTTATTTTATAAAAAAA [XGTACX_site7730]	8.29 ± 0.23
AACAAATTTATCCAAAGTACAAAATATCATTTCTTA [XGTACX_site4543]	7.47 ± 0.54
ATTATAATTATATATGCATGTAGCATTTTCTATTTT [TGCATGCA_site66]	7.55 ± 0.81

Sequence	gcPBM binding intensity (ln)
AACAACATGTAGACGCGTACCAACATCAGATCCTAT [XGTACX_site4071]	7.71 ± 0.59
TTCTTTATTTATCATTATAAGAAGAGTTGATTTGTT [XGTACX_negctrl_site555]	7.66 ± 0.44
TTATAATATAGCAATTATTAAATAGGATCAAATGAA [CACACA_negctrl_site632]	7.62 ± 0.49
TATAAATACTAAAAAAGTACAAAATTTCATAAAAAA [XGTACX_site2709]	7.82 ± 0.59
ATTTTATATAATACATGTACAAAAGTTTAAATTTAT [XGTACX_site6196]	7.67 ± 0.76
ATATGTTTGATTTTTTTTTTTTTTTTTTTTATGTGT [CACACA_negctrl_site1001]	7.61 ± 0.12
AAAAAAAAAATTAAAAGTACAGAAAATAAATAAATA [XGTACX_site7470]	7.62 ± 0.69
TTAATACACCATAAAAGTACATAATATGATATTTAA [XGTACX_site8561]	8.06 ± 0.071
TTTTTCTTTTTTTTTTCCTTTATCACATAAGAAAAA [CACACA_negctrl_site192]	7.84 ± 0.58
AAGATATGAGGGAATACACACATATATATATATATA [CACACA_site1581]	9.31 ± 0.52
AAAATGAAGAAGTGCACACATATATATATTTATATA [CACACA_site507]	9.88 ± 0.28
AAGAAAATAAATAATACACACAAGGATTTGTAAATA [CACACA_site690]	7.54 ± 0.69
CTTTTTTTTTAAAAATGTACACATTTTTGAAAATAC [XGTACX_site3127]	7.85 ± 0.42
CATATAATAAATAATACACACATATTGTAAATATAT [CACACA_site5734]	7.61 ± 0.51
AATTGAGTATCGTGAGTGCAAAACGTGGTTCAAAGA	10.2 ± 0.25
TAAAATAAAATAAAATGTACTTTCCTTTTGATAATA [XGTACX_site6288]	7.3 ± 0.35
GTAATGAACAAACACAAAAAAAAAAAAAAAATAATA [TGCATGCA_negctrl_site344]	7.38 ± 0.38
TTTTCCCTTACAGAAAAAAAAAAATTCCTAACCCCG [CACACA_negctrl_site650]	7.93 ± 0.42
TTATATATTTATAATCGTACAATAATTAACGTAAAA [XGTACX_site3206]	7.84 ± 0.56
ATATATTTTAGGAGAGTGCATTTAATATTATTTAAT [GTGCAC_site9444]	10.7 ± 0.62
TATATGGGATATATGTGTACATATAAAATATGTATC [XGTACX_site3365]	7.89 ± 0.4
TTTTTTTTTTTTTTTACACACATTTGAATAACTTTA [CACACA_site6810]	8.16 ± 0.45

Sequence	gcPBM binding intensity (ln)
CTTAATATGAATAAAACACACATATATAATTTGTAA [CACACA_site5120]	7.39 ± 0.48
AAAAGAATTAAAAAATGTACATATAATATATATATA [XGTACX_site6721]	8.94 ± 0.18
AAAAAAGAAGACATCTAAGTAATAGTAACAATGTAT [CACACA_negctrl_site1660]	7.67 ± 0.63
GACATATTATTCATGTGTACATATTATATGTATATA [XGTACX_site3442]	7.8 ± 0.37
TATAAATATACACCCACACACATATATAAATAAATA [CACACA_site7717]	8.04 ± 0.57
AAGAATTTAGAAGGCATGCACTTAAACATGCATATA	8.47 ± 0.84
ATATCTTCACTTATATGTACTTACATTTTTTTTTTT [XGTACX_site8696]	8.04 ± 0.71
ATAACTATATACATCTGTACATAATACATAGATAAA [XGTACX_site2795]	7.78 ± 0.46
ATTTGTATATAATATATATAATTTTTTTTTTTTGTT [XGTACX_negctrl_site425]	7.32 ± 0.45
TATACACATAGACACACACACATACACGCACATACA [CACACA_site6908]	8.27 ± 0.33
TAATAAGTATCAAAATGTACATGACAAAAATAATTT [XGTACX_site8961]	7.88 ± 0.79
TCTAAAAAAATTATATCACACATTATAAAGCATATT [CACACA_site4885]	7.55 ± 0.54
ATATATATGTATATATGTACATATATGTATATATAT [XGTACX_site4772]	8.14 ± 0.59
ATAATATATGCAAAAACATGCACATAATATGTAAAA [TGCATGCA_site742]	8.51 ± 0.69
ATAATTTTATATAAATGTACATACATTTTTATTATA [XGTACX_site7368]	7.63 ± 0.35
ATTAAATCATATGAATGTACGGATATATATATTTCC [XGTACX_site8650]	7.53 ± 0.38
TGATAAATTTTCACATGTACATATATAGAATAACCT [XGTACX_site2860]	8.19 ± 0.24
ATTTGAAAAAATACTACACACCATATTGTTAATTTT [CACACA_site3829]	7.68 ± 0.54
AAGATTCATATAAAAAGTACAAAAAGAAAAAAATAA [XGTACX_site6033]	7.59 ± 0.71
CATAATATATATTGAGCATGCTACTATTGTTAGAAA [TGCATGCA_site740]	7.59 ± 0.59
ACATATAAGATATATACACACATATAAATACATTAA [CACACA_site7763]	7.8 ± 0.34
AAAAAAAAAAACTACACACATACAAATATTTATATA [CACACA_site2574]	7.32 ± 0.3

Sequence	gcPBM binding intensity (ln)
AGAATAGTGGAAAACACACACGTTTGAGATATGGAC [CACACA_site4782]	8.07 ± 1
TTATAAAAAGAACAATTAAAAAAAAATAAAATAAAA [XGTACX_negctrl_site398]	7.61 ± 0.81
TTTTTATGTTCTATATATATATATATATATATATAT [GTGCAC_negctrl_site306]	9.29 ± 0.45
GCACGTGTGATTAGATGTACATAACATGTATATGTC [XGTACX_site4632]	7.91 ± 0.53
CACCCACCCACATACACACACATACACATATATATA [CACACA_site1722]	8.55 ± 0.71
CAAATAAAAAAAGTAGCACACATGAATAAAATATAT [CACACA_site3130]	8.04 ± 0.69
ATACATACATATGTATGTACGTATGTATGTATGTAT [XGTACX_site3853]	8 ± 0.2
TTTTTATTTTTTGTCTGTACATATATAAATTTATTA [XGTACX_site1525]	7.88 ± 0.47
GATATAAGGGTATGAAGTACATAAATATTTTATGCT [XGTACX_site1886]	7.79 ± 0.55
TATGCACGCGAACACACACACACAACTAAAAAATAA [CACACA_site7251]	8.21 ± 0.3
GGAAACCCTCCCAAATGTACTTTTATAAAAAAATAC [XGTACX_site5502]	8.2 ± 0.6
ATATAAGTACATATAACACACATATATTATAAGTAT [CACACA_site2647]	8.19 ± 0.23
TTTGCCATAAAACACACACACATGTAAACCCCCTTT [CACACA_site1646]	8.98 ± 0.18
TATACTCAGAAACACACACACACACCCAAAAAAAAA [CACACA_site4434]	8.4 ± 0.28
ATACATATATAAATATGTACACACATATGTATGATC [XGTACX_site8219]	7.82 ± 0.32
AAAAAAAAAAAAAAAACACACATACACCCAGACACA [CACACA_site5807]	8.88 ± 0.42
TTTATATAAGGACATGCATGCTATTATTAAATATAT [TGCATGCA_site1011]	7.79 ± 0.57
TAATATATAAATATATGTACATAATAAATAGGATAT [XGTACX_site3661]	8.13 ± 0.57
ACTTCATAGGTTACCTGTACATATAAGGAGTTATCA [XGTACX_site4110]	7.82 ± 0.53
TACGCGAAATGAATATGTACATATATGAGGGCATAT [XGTACX_site4293]	8.16 ± 0.54
ACTATTTAAAAATATGGTACACGAAATTCAAGAGAA [XGTACX_site5903]	8.17 ± 0.57
ATGAATTAACCTAATCGTACAATAAATATTATTATA [XGTACX_site596]	7.55 ± 0.39
